Measurements published in PubChem BioAssay AID686970 (National Center for Advancing Translational Sciences (NCATS), 2013).
Out of some 360,000 compounds screened, about 6,000 (1.7%) were called active. The inconclusive results got no clear call from the source; some entries with a clear call stand among them for comparison. Calls come from the whole dose curve; as a rule, active = well fitted cell-killing curve with a large enough effect; inconclusive = small, poorly fitted or top-dose-only effect, or effect the other way; inactive = flat fitted curve, though single readings scatter. No potency is given beside an inconclusive call; the fits are too rough.

assay: qHTS for induction of synthetic lethality in tumor cells producing 2HG: qHTS for the HT-1080-NT fibrosarcoma cell line; conditions: HT-1080-NT fibrosarcoma viability, CellTiter-Glo ATP luminescence, 48 h; activity, negative = less viability: at 46.1 µM (top of the series) unless noted;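 note: NT is the 2HG producing partner of a matched IDH1 knockdown line; nearly all actives have a fitted effect of over 55% in size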;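 for activity, negative = less viability: 0% = DMSO-treated cells and -100% = media-only wells without cells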
How it was run: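 A 48-hour cytotoxicity screen used HT-1080-NT cells plated 2 hours before compound delivery. ATP-based CellTiter-Glo luminescence measured viability, normalized to DMSO and no-cell controls.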
Potency is the fitted concentration of half-maximal effect; tags give direction and shape of the fitted curve.

Compound	Potency	activity, negative = less viability
C=C1N(C)c2cc([N+](=O)[O-])c(N)cc2C1(C)C	inconclusive [cytotoxic, full curve, poor fit]	
Cc1ccc(/C=C2\Oc3cc(OCC(=O)NN)ccc3C2=O)o1	inconclusive [cytotoxic, single point]	
N/C(=N\OC(=O)CCCC(=O)O)c1ncc(C(F)(F)F)cc1Cl	inconclusive [rising, partial curve, poor fit]	
CCc1c(C#N)c(SCCC(=O)Nc2ccc(F)cc2)nc2c1C(=O)CC(C)(C)C2	inconclusive [cytotoxic, single point]	
Cc1cccc(N2CCN(C(=O)N3CCOCC3)CC2)c1C	active: 16.4 µM	
COc1cc(/C=C2/C(=O)NN(c3ccc(F)cc3)C2=O)cc([N+](=O)[O-])c1O	inconclusive [cytotoxic, partial curve]	
Cc1cccc(CCNC(=O)Cn2ncc3c([nH]c4ccccc43)c2=O)c1		inactive: -5.02%
Cn1c(O)c(C(C#N)=C2N=c3ccccc3=N2)c2ccccc21		inactive: 8.61%
Cc1nnsc1C(=O)NNc1c(Cl)cccc1Cl	inconclusive [cytotoxic, single point]	
FC(F)(F)c1cc(Oc2ccccc2)nc(-c2ccccn2)n1	inconclusive [cytotoxic, single point]	
COc1cc(OC)c(CN2CCc3c([nH]c4ccccc34)C2)cc1Br	active: 16.4 µM	
CCc1ccc(N=CC23c4ccccc4C(c4ccccc42)C2C(=O)N(c4ccc(OC)cc4)C(=O)C23)cc1 (configuration not stated)	inconclusive [cytotoxic, single point]	
CCOc1ccccc1OCCCC(=O)N1CCN(S(=O)(=O)c2cccc(F)c2)CC1	inconclusive [rising, single point]	
Cc1ccc(CS(=O)(=O)c2ccc(C(=O)N3CCCCC3)cc2[N+](=O)[O-])cc1		inactive: -0.935%
CCOc1ccc(OCC)c(NC(=O)c2nnn(CC(=O)Nc3cc(C)cc(C)c3)c2N)c1	inconclusive [cytotoxic, single point]	
COc1cc(OC)c(S(=O)(=O)Nc2ccc(C(=O)O)cc2)cc1S(=O)(=O)Nc1ccc(C(=O)O)cc1	inconclusive [rising, single point]	
CCN1C(=O)C(CC(=O)Nc2ccc(OC)cc2)N(CCc2ccccc2)C1=S (configuration not stated)	inconclusive [cytotoxic, partial curve]	
Cc1ccc[n+](C(C)C(=O)c2ccc(-c3ccccc3)cc2)c1 (configuration not stated)	inconclusive [cytotoxic, single point]	
Oc1ccc(-c2nccc(-c3cccs3)n2)cc1	inconclusive [cytotoxic, partial curve]	
CC(=O)SC1CC(=O)C=C2CCC3C4CCC(=O)OC4(C)CCC3C21C (configuration not stated)		inactive: 7.8%
CC(=O)/C=C(\C)Nc1ccccc1O	inconclusive [cytotoxic, single point]	
CC(C)CC1Nc2ncnc(N3CCN(c4ccccn4)CC3)c2N(Cc2ccc(Cl)cc2)C1=O (configuration not stated)	inconclusive [cytotoxic, single point]	
Cc1cccc(Nc2c3c(nc4ccccc24)CCC3)c1	active: 14.6 µM	
Nc1ccccc1C#CC(=O)c1ccccc1	inconclusive [cytotoxic, single point]	

Compound	Potency	activity, negative = less viability
CCOC(=O)C1CCCN(C(=O)CN2C(=O)c3ccccc3S2(=O)=O)C1 (configuration not stated)		inactive: 8.73%
C(=C\c1nc2ccccc2[nH]1)/c1ccccc1	active: 18.4 µM	
Nc1ccccc1C(=O)NC(=O)Nc1ccc(Oc2ncc(Br)cn2)c(Cl)c1	inconclusive [cytotoxic, full curve]	
Cc1cc(N/N=C/c2ccc(O)cc2O)nc(-n2nc(C)cc2C)n1		inactive: -29.6%
O=C(Nc1ccccc1)c1cn2ccccc2n1	inconclusive [cytotoxic, single point]	
O=C(Nc1nccs1)c1ccc(COc2ccccc2Cl)o1	inconclusive [cytotoxic, partial curve]	
O=C1[C@H](Cc2ccccc2)NCC=CC[C@H](c2ccc(Cl)cc2)N1Cc1ccc(Cl)cc1	inconclusive [cytotoxic, single point]	
Cc1ccc2nc(-c3ccccc3)c(Cc3cccc(F)c3)n2c1	inconclusive [cytotoxic, single point]	
O=C(Nc1ccc(S(=O)(=O)N2CCCC2)cc1)c1ccc(Br)o1		inactive: -11.6%
CC(C)[N+](C)(CCOC(=O)C1c2ccccc2Oc2ccccc21)C(C)C	inconclusive [rising, single point]	
O=C(CSc1cccc[n+]1[O-])c1cc2ccccc2o1	active: 7.31 µM	
Nc1nc2ccccc2cc1C(=O)NCc1ccc(Cl)cc1Cl	inconclusive [cytotoxic, single point]	
O=C(CN1C2=NCCCN2c2ccccc21)c1ccc(Cl)cc1Cl		inactive: -18%
CC(=O)Nc1ccc(NC(=O)C(C)OC(=O)C(C)SCC(=O)Nc2ccc(C)cc2)cc1 (configuration not stated)		inactive: 1.94%
CCN(CC)CCN1CCn2c3c(c4cc(C)ccc42)CCCC31 (configuration not stated)	inconclusive [cytotoxic, single point]	
O=C(O)c1cc(S(=O)(=O)N2CCCCC2)ccc1N1CCCCC1		inactive: -7.15%
CNc1nc(-c2ccccn2)nnc1-c1ccccc1	inconclusive [cytotoxic, single point]	
COCCn1c(C2CCCCC2)nc2sc3ccccc3c(=O)c2c1=O		inconclusive: 13.6%
Cc1cccc(C)c1NC(=O)C[n+]1cc(-c2ccccc2)n2c1CCC2		inactive: 3.35%
N#C/C(=C\c1cccs1)C(=O)NCc1ccco1	inconclusive [rising, partial curve]	
O=C(N/N=C/C1=C(N2CCOCC2)C(=C\c2ccccc2)/CC1)Nc1ccccc1	inconclusive [cytotoxic, partial curve]	
c1ccc(Cn2c(Cn3c(-c4cnccn4)nc4ccccc43)nc3ccccc32)cc1		inconclusive: -18.9% [cytotoxic]
COc1ccc(C(C#N)=C2C=CC(=NO)C=C2)cc1	active: 14.6 µM	
COc1ccc(C(=O)/C=C/C(=O)N(CC(=O)NC2CCCCC2)Cc2ccccc2OC)c(O)c1	inconclusive [cytotoxic, single point]	

Compound	Potency	activity, negative = less viability
CC1CCCN(CCOc2ccc3ccccc3c2Br)C1 (configuration not stated)	active: 20.6 µM	
O=C(/C=C/c1ccccc1)NNC(=O)c1cccc(Cl)c1		inactive: 13.1%
O=C(c1ccncc1)N1c2ccccc2Sc2ccccc21	inconclusive [cytotoxic, single point]	
CCCOc1ccc(C(=O)Nc2ccc(N3CCN(C(=O)c4ccco4)CC3)cc2)cc1	inconclusive [cytotoxic, single point]	
Cc1cc(C)cc(Oc2nc(-c3ccccc3)cc(C)c2S(C)(=O)=O)c1	inconclusive [cytotoxic, single point]	
COCCn1c(SCC(=O)Nc2sccc2C(N)=O)nc2cc(Cl)ccc2c1=O		inconclusive: -33.7% [cytotoxic]
O=C(c1cccc(Oc2ccc([N+](=O)[O-])cc2)c1)N1CCOCC1	inconclusive [rising, single point]	
COC(=O)C1=C(C)NC(C)=C(C(=O)O[C@@H]2CCCN(Cc3ccccc3)C2)[C@@H]1c1cccc([N+](=O)[O-])c1	inconclusive [cytotoxic, single point]	
COC(=O)N/N=C/c1ccccc1OCCOc1ccc(OC)cc1	inconclusive [cytotoxic, single point]	
CCOC(=O)C1CCCN(C(=O)CCNS(=O)(=O)c2cc(Br)cnc2N)C1 (configuration not stated)		inactive: -1.63%
CC(C)COc1cccc(-c2cc(C(=O)Nc3ccon3)c3ccccc3n2)c1	inconclusive [cytotoxic, partial curve]	
CC1CC(=O)N(CC(=O)NC2CCCCC2)c2ccccc2S1 (configuration not stated)		inactive: 4.77%
COc1cc(C(C[N+](=O)[O-])c2c(N)n(C)c(=O)n(C)c2=O)ccc1O (configuration not stated)	inconclusive [cytotoxic, partial curve]	
O=C1NC(c2ccc(Cl)c([N+](=O)[O-])c2)Nc2ccccc21 (configuration not stated)	inconclusive [cytotoxic, single point]	
CC(Nc1nc(-c2ccc3c(c2)NC(=O)CO3)cs1)c1ccccc1 (configuration not stated)	inconclusive [cytotoxic, single point]	
N#CCc1ccnc2ccccc12		inactive: -1.06%
C=C(C)C1(O)OC(=O)C=C1OC (configuration not stated)		inactive: -13.2%
Cn1c(-c2ccc(-c3ccccc3)cc2)c[nH]c1=S		inactive: 3.61%
O=C(c1ccccc1)N1CCCC(C(=O)N2CCc3ccccc3C2)C1 (configuration not stated)		inactive: -4.95%
CCN(CC)S(=O)(=O)c1cc(NC(=O)Cn2ncc(Cl)c(Cl)c2=O)ccc1C	active: 10.3 µM	
CC(CCc1ccccc1)NC(=O)COC(=O)c1cc(NS(=O)(=O)c2ccc(Cl)c([N+](=O)[O-])c2)ccc1O (configuration not stated)	inconclusive [cytotoxic, single point]	
CCCNC(=O)CCCN1C(=O)c2ccccc2Sc2ncccc21		inactive: 12.8%
CCN(CC)CCNC(=O)c1ccc(NC(=O)Cc2cccc3ccccc23)cc1	inconclusive [cytotoxic, single point]	
CSc1ccc(S(=O)(=O)NCc2ccc(C)cc2)cc1	inconclusive [cytotoxic, partial curve]	
